Experimental findings from the RNAGym collection of RNA variant scans (doi:10.7554/elife.90254) are described below.

B1: LINE1-mini (parent)
chain: GGCAGAGCUCAACACAGCGUGGCAAAGUGGCUGUGGCUAGACUGCC

Read counts are not given, so values of variants with three or more changes are uncertain.

Variants of B1 are the subject of this series. Nature of the series: self-cleavage, relative activity (ratio to wild type); higher = more cleavage; in vitro, sequencing; the parent is a self-cleaving ribozyme.
For U20G A24C G36C, the self-cleavage stood at 0.14.

As for U20A G22U A25G G27A, the self-cleavage amounted to 0.46. With U20A C37U U38A A39U the figure was 0.02; with U20G G22C U28C, 0.35; with U20C G44C C46U, 0.04.

Consider U20C G36C G44U, for which the self-cleavage stood at 0.01.

Take U20C G21U U43C: the self-cleavage came to 0.03.

Turning to G21A A41U C46G, the self-cleavage was found to be 0.25.

Turning to U20G G21U C45A, the self-cleavage amounted to 1.56. The figure for U20C C23G G29U is 0.28; for U20A G21A C23U A24C C42G it is 0.1; for U20G G21U G27U it is 1. With U20A G29A U32A A41C the figure was 0.02; with U20G U28A U43C, 0.02; with U20G G21A G36C, 0.09. With G21A A25G G40U the figure was 0.3.

Take U20A G22A G36C: the self-cleavage was determined as 0.16. With G21A G29A G36U the figure was 0.02; with U20G G35U C37A, 0.08; with U20G A26C G33C, 0.07. The figure for U20G A25G C31U G33C G40U A41U is 0.09. The figure for U20G G21C A39U is 0.34.

With U20G U34C G44C, the self-cleavage is 0.04.

Regarding U20A A25C G40A A41G, the self-cleavage stood at 0.09. With G21A G22C G29U G44C the figure was 0.06; with G21A G22U G27C, 0.21.

As for G21A G22U G27U, the self-cleavage amounted to 0.23. With U20A U32A U34C G44A, the self-cleavage came to 0.05.

As for U20A G29C C37U, the self-cleavage is 0.01. For the variant U20A C23A C31A, the self-cleavage stood at 0.17. As for U20G G21A G35U, the self-cleavage was 0.07. With G21A A25C U32A the figure was 0.05; with G21A G29C G35U G36C A39U, 0.05; with G21A A25C G27A, 0.72. With G21A G22U C46G the figure was 0.81; with U20G G21A G30U, 0.4. G21A A26C U28G G33C: the self-cleavage stood at 0.02. With U20A G22A U28C C46U the figure was 0.84; with U20C G30U U32G A39U C46A, 0.15. With U20G G33U U34G the figure was 0.04; with U20C C23A G30A G35C, 0.1; with U20C C23G G35A C42A, 0.06. Turning to U20G G27A G29A G35A, the self-cleavage turned out to be 0.21.

On to U20A G44A C46G, for which the self-cleavage was determined as 0.01. The figure for U20C U34G C42G is 0.03; for U20A C45A C46U it is 0.47. With U20C A24C G30U the figure was 1.39; with U20A G30A G35C G36A, 0.09; with U20C G22C C37U U43A, 0. With U20C G35C A41C the figure was 0.04. On to U20G G29C C42U, for which the self-cleavage is 0.14. In the case of U20C U32A C42G, the self-cleavage was 0.03.

On to U20A G36C G40U C42U, for which the self-cleavage turned out to be 0.02. With U20G A39C A41C the figure was 0.05; with U20C G35U A41C C42A U43A, 0.01; with U20G C23A C42G, 0.04. With U20A A25U A26C G33A the figure was 0.03. The figure for U20G G21U C37A is 0.04; for U20A G29U C37U it is 0; for U20C G36U U38A it is 0. Consider U20C A25U G29C C37G, for which the self-cleavage stood at 0.01. With U20A A39G C45A the figure was 0.08. The figure for U20C G22U U32G U38C is 0.02; for G21A C31G U32A G33U it is 0.07. With U20A G27U G29U, the self-cleavage was found to be 0.25. The figure for U20A C31U U34A is 0.05.

In the case of U20C C23U U28G C45U, the self-cleavage worked out at 0.72. In the case of G21A A25G G33C, the self-cleavage came out at 0.09. For U20A G27A U28C, the self-cleavage was found to be 0.12. The figure for U20C A24G C42G G44C is 0.03.

Take U20C A25U A26U C31A: the self-cleavage came out at 0.08.

Take G19U U43A G44A: the self-cleavage was determined as 0.01. Take U20A G22A C23A: the self-cleavage worked out at 1.66. The figure for G19U U32G G33U is 0.04; for U20A U28G G30C C37U it is 0.03. For U20G U34C G35U C45U, the self-cleavage was 0.09. The figure for G21A A24G G33U is 0.05; for G21A C23U U38C it is 0.54. Turning to U20C G33U G35U C45U, the self-cleavage was determined as 0.05. With U20C A24U G35C G40U the figure was 0.03. U20G C31G G40A C42A: the self-cleavage was determined as 0.02.

Consider U20C G29A C42G, for which the self-cleavage came out at 0.02. With U20C G22A G27A G29U the figure was 0.25; with U20C G35U C45U, 0.03. With U20G G21C G44U the figure was 0.62; with U20G G22A G27C U28A G30C, 1.62. For the variant G21A G22A G27A C37U, the self-cleavage amounted to 0.01.

As to U20G G21U A24C G30U G40U, the self-cleavage worked out at 0.08. With U20G U32G U38G U43C the figure was 0.01; with U20C A26G G36U C45U, 0.04; with U20G G30A U38A, 0.82. With U20C C42G C46G the figure was 0.01.

In the case of U20G U28G G29A, the self-cleavage came to 0.46. The figure for G21A C23A U32A is 0.14; for U20G G21U U28C G29U it is 0.17; for G21A C23A G27U G30A it is 1.24. With U20A A26U C42U C46A the figure was 0.08; with G21A A26G C37A C46U, 0.04; with U20G A24U G27U A39U, 0.02. With G19U U32C G36A the figure was 0.08; with U20C C23U G35C C42U, 0.03. Consider U20G U34G G35U, for which the self-cleavage worked out at 0.08. The figure for U20G C23U A25C is 0.31; for U20G C23G G29A it is 1.04; for U20C G21C A25U it is 0.39. Consider U20C G27C G35A C45G, for which the self-cleavage came to 0.05. With U20A G22C G35A A39U the figure was 0.62. The figure for U20C U43C C45U is 0.01; for U20C G30U C31A A41C it is 0.02.

For U20G G22C U32A C42A, the self-cleavage amounted to 0.01. With U20A G27U G33A G36C C37A C46U the figure was 0.02; with U20A G33A U34G U38G, 0.03. Turning to U20C A26U A41U C42U, the self-cleavage came to 0. With U20A A39C C42A the figure was 0.05; with G21A G22A G30C A39U G44U, 0.09; with U20C G21C G22C C37A C45U, 0.03.

With U20C U34A C46G, the self-cleavage was found to be 0.37. The figure for U20G A25C G29U U43C is 0.02. The figure for U20C A26U G29C G33U A41C G44C is 0.02; for U20C C23U U28C it is 1.66; for U20C C23U U28G it is 0.2.

In the case of U20C U28A A41C, the self-cleavage turned out to be 0.01.

Consider U20A G22U C23A A39G G40C C42A C45G, for which the self-cleavage turned out to be 0.06. With U20A A24G G30C G33U C46U the figure was 0.02; with U20A C42A G44C, 0.19. The figure for U20A A24C A41U is 0.23.

For U20C C31U U34A, the self-cleavage was 0.03.

In the case of G21A G27C C45A, the self-cleavage was found to be 1.33. On to G21A G22C C37A A39C, for which the self-cleavage was found to be 0.03. With U20G A24G U43C the figure was 0; with U20A C45U C46U, 0.13; with U20C U28A A39G, 0.01. With U20G A26C U28G A41G C45A C46U the figure was 0; with U20A A26C U34G, 0.33; with U20C A24U A25C G40C, 0.02. With U20C U32G U34C C37A C42A the figure was 0.03; with U20G G21C G36C G44C, 0.03; with U20C G36A U43A, 0.01. For the variant G21A G30U C31U, the self-cleavage stood at 0.02. With U20A C37G A39G A41U the figure was 0.05; with U20C U34G C37G, 0.03. As to U20A G40A C46A, the self-cleavage worked out at 0.01. The figure for G21A G30A G33C is 0.04; for G21A G30A G33U it is 0.05. The figure for U20C G21U G29U G35U G40A is 0.03; for U20C G30U A41U it is 0.3. The figure for G21A C23A A39U is 0.35; for U20C G33A G40C it is 0.03.

With U20G G22A G29U, the self-cleavage is 0.19. The figure for U20G U32A G40U is 0. The figure for U20C C23A U32C is 0.16; for U20A G21C A25G G33U it is 0.02; for U20A C23U A24G C42G it is 0.01. Turning to U20G G27A C46U, the self-cleavage is 1.04. With U20G A25U G27C G44C the figure was 0.04; with U20G A41G C46G, 0.08; with U20C C23U U32C U38A, 0.16. The figure for U20A U28C G29U is 0.76; for G21A A39U A41G it is 0.6; for G21A A41U U43G it is 0.15. The figure for G21A C23G G33A is 0.79; for U20C G21A C23U it is 0.46; for G19U U38C G40U it is 0.01. Turning to U20G U28C U38C G44C, the self-cleavage was determined as 0. With G21A C31G G36C U43C C46G the figure was 0.02; with U20G A39G A41U, 0.03. With U20A U34A G44C the figure was 0.02.
